# The list shows a part of the results, in another mix than the full data. The list includes weakly bound sequences.
# Experiments:
# Assay in all cases: protein-binding microarray (PBM)
# Settings in all cases: PBM: ~300 nM protein, 6 mM HEPES pH 7.8, 80 mM KCl, 0.5 mM EDTA, 0.5 mM EGTA, 6% glycerol, 35 ng/ul poly-dIdC, 1% milk, 1 h, room temperature; Ap Aiptasia and Nv Nematostella (sea anemones) / Co Capsaspora / Aq Amphimedon (sponge) / Dm Drosophila / Hu human; RHD is the Rel homology domain; high values mean tight binding; most listed sequences are background and not binding sites; double strand, one strand shown
# GST-Dm-Relish = target: T1, GST-Dm-Relish (UniProt Q94527)
# T1 sequence: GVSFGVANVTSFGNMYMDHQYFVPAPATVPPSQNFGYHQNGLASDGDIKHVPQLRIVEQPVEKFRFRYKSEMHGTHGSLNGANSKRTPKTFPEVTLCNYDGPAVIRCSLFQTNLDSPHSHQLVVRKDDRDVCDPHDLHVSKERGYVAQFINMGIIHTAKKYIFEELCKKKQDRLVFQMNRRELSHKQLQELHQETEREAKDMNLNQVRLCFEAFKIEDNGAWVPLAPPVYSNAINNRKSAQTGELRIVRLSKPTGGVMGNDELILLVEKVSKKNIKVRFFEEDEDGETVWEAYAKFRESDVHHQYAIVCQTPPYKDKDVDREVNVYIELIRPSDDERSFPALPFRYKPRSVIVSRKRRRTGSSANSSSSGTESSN
# GST-Aq-NF-kB = target: T2, GST-Aq-NF-kB (UniProt A9Y5G7)
# T2 sequence: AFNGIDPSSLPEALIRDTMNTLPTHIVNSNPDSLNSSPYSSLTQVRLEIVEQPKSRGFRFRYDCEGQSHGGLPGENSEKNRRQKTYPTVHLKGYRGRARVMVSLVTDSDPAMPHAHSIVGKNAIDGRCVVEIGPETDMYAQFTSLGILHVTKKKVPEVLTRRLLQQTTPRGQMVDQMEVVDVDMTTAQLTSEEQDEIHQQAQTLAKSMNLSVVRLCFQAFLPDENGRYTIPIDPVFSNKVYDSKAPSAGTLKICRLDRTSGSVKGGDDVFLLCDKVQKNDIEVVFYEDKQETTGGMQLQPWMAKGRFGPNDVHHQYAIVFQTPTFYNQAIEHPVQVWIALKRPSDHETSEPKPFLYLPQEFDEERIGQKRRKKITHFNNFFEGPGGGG
# GST-Co-NF-kB = target: T3, GST-Co-NF-kB (UniProt F1ARL5)
# T3 sequence: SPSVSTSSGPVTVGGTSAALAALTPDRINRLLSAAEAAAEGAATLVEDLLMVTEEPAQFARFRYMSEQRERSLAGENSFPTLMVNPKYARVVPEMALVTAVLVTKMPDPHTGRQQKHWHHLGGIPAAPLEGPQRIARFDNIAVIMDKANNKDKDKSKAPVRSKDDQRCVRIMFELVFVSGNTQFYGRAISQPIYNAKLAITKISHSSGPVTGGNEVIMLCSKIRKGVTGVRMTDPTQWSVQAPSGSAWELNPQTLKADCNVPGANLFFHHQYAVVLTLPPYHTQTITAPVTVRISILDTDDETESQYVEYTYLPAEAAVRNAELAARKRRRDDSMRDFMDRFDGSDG
Sequence,binding signal (GST-Dm-Relish) [z-score],binding signal (GST-Aq-NF-kB) [z-score],binding signal (GST-Co-NF-kB) [z-score]
CCGATTAACATCAGGAAGTTCCCTGATGTTAATCGGGTCTTGATTCGCTTGACGCTGCTG,4.82,7.74,
CCGATTAACATCACGCAATTCCCTGATGTTAATCGGGTCTTGATTCGCTTGACGCTGCTG,1.52,3.43,2.33
CCGATTAACATCACATTTTCCCATGATGTTAATCGGGTCTTGATTCGCTTGACGCTGCTG,1.33,2.13,3.98
CCGATTAACATCAGAATCTCCCCTGATGTTAATCGGGTCTTGATTCGCTTGACGCTGCTG,3.02,5.81,6.25
CCGATTAACATCAAAATTCCCTCTGATGTTAATCGGGTCTTGATTCGCTTGACGCTGCTG,5.36,6.5,3.2
CCGATTAACATCAAGAAAATCCCTGATGTTAATCGGGTCTTGATTCGCTTGACGCTGCTG,6.64,5.58,2.27
CCGATTAACATCAAAATATCCCCTGATGTTAATCGGGTCTTGATTCGCTTGACGCTGCTG,8.53,7.25,5.38
CCGATTAACATCAGGAAGTCCCCTGATGTTAATCGGGTCTTGATTCGCTTGACGCTGCTG,8.96,8.77,
CCGATTAACATCAATGTGGGAAATGATGTTAATCGGGTCTTGATTCGCTTGACGCTGCTG,0.637,1.55,2.85
CCGATTAACATCAGGGAAAATTATGATGTTAATCGGGTCTTGATTCGCTTGACGCTGCTG,2.28,6.77,
CCGATTAACATCAGGAGATCCCCTGATGTTAATCGGGTCTTGATTCGCTTGACGCTGCTG,8.66,8.6,2.55
CCGATTAACATCAAAAAAACCCCTGATGTTAATCGGGTCTTGATTCGCTTGACGCTGCTG,9.78,8.79,
CCGATTAACATCAGAATATCCCCTGATGTTAATCGGGTCTTGATTCGCTTGACGCTGCTG,6.49,5.85,
CCGATTAACATCAGAATCTCCCATGATGTTAATCGGGTCTTGATTCGCTTGACGCTGCTG,0.371,2.73,
CCGATTAACATCAGGAATTACCATGATGTTAATCGGGTCTTGATTCGCTTGACGCTGCTG,4.62,3,0.247
CCGATTAACATCAGCATCCCCCCTGATGTTAATCGGGTCTTGATTCGCTTGACGCTGCTG,4.52,4.67,4.85

Sequence,binding signal (GST-Dm-Relish) [z-score],binding signal (GST-Aq-NF-kB) [z-score],binding signal (GST-Co-NF-kB) [z-score]
CCGATTAACATCAAAAACACCCCTGATGTTAATCGGGTCTTGATTCGCTTGACGCTGCTG,5.77,4.95,3.98
CCGATTAACATCAACATGGGAAATGATGTTAATCGGGTCTTGATTCGCTTGACGCTGCTG,0.0756,1.66,1.82
CCGATTAACATCAGGGGGATGGATGATGTTAATCGGGTCTTGATTCGCTTGACGCTGCTG,2.24,3.5,3.52
CCGATTAACATCAGGGGGGTGGATGATGTTAATCGGGTCTTGATTCGCTTGACGCTGCTG,3.78,4.03,
CCGATTAACATCAGGGAAGGCCCTGATGTTAATCGGGTCTTGATTCGCTTGACGCTGCTG,8.94,6.45,0.185
CCGATTAACATCAATAGTACCGATGATGTTAATCGGGTCTTGATTCGCTTGACGCTGCTG,0.483,0.437,-0.98
CCGATTAACATCAGGGGTCCCCATGATGTTAATCGGGTCTTGATTCGCTTGACGCTGCTG,7.31,3.6,
CCGATTAACATCACGGGAATCCCTGATGTTAATCGGGTCTTGATTCGCTTGACGCTGCTG,10.1,7.15,3.81
CCGATTAACATCAGGAAGCTCCCTGATGTTAATCGGGTCTTGATTCGCTTGACGCTGCTG,-0.142,3.72,-0.233
CCGATTAACATCAAAAATTCCCGTGATGTTAATCGGGTCTTGATTCGCTTGACGCTGCTG,7.67,7.49,6.08
CCGATTAACATCAGGGTGTTTTATGATGTTAATCGGGTCTTGATTCGCTTGACGCTGCTG,3.11,4.69,1.55
CCGATTAACATCAGGGGGGGGGATGATGTTAATCGGGTCTTGATTCGCTTGACGCTGCTG,5.78,5.02,7.03
CCGATTAACATCAGGTAATCCCATGATGTTAATCGGGTCTTGATTCGCTTGACGCTGCTG,6.13,3.49,0.665
CCGATTAACATCAGAAATTTCCCTGATGTTAATCGGGTCTTGATTCGCTTGACGCTGCTG,4.81,7.73,5.21
CCGATTAACATCACCAACCCCCCTGATGTTAATCGGGTCTTGATTCGCTTGACGCTGCTG,5.37,3.88,3.02

# — article PMC5700166
